Laboratory results as given in PubChem BioAssay AID1240 (Sanford-Burnham Center for Chemical Genomics, 2008).
About 800 (1.6%) of roughly 50,000 compounds showed an effect of 50% or more. This is one part of the list.

target: Bcl-2-like protein 10 (Homo sapiens) (UniProt Q9HD36); test: Phenotype converters, Bcl-B/TR3 peptide binding displacement, primary biochemical FP (AID 1240); conditions: GST-Bcl-B / FITC-TR3 peptide fluorescence polarization; stronger effect = higher value; compound at 3.75 mg/L;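 note: 0% = Bcl-B with tracer peptide and DMSO and 100% = tracer peptide lacking Bcl-B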
Sequence of UniProt Q9HD36 (Q9HD36 whole entry, looked up): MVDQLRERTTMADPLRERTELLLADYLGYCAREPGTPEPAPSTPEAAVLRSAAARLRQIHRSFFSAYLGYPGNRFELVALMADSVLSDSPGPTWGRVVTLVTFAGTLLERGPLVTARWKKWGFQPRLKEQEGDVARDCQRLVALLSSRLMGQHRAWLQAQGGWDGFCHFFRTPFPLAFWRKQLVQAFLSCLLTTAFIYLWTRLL

Compared with `O=C(Nc1ccc(OC(F)(F)F)cc1)c1cc2n(n1)C(C(F)(F)F)CC(c1cccs1)N2` (stereo not given), `O=C(Nc1ccc(F)cc1)/C(=C\c1cccs1)NC(=O)c1ccccc1` is higher in displacement: 5.9% for the first, 7.5% for the second.

Going from `COc1ccc(Cl)cc1N(CC(=O)NCCCC(C)(C)C1OCCO1)S(=O)(=O)c1ccc(C)c([N+](=O)[O-])c1` to `CCOc1ccc(N(CC(=O)Nc2ccccc2OCC)S(=O)(=O)c2ccc(SC)cc2)cc1`, the displacement rises from -9.9% to 15.2%.

Going from `COc1cccc(C(=O)Nc2ccc(OC)c(OC)c2)c1` to `COc1ccc(C(=O)Nc2ccc(N3CCN(C(C)=O)CC3)cc2)cc1OC`, the displacement rises from -6.1% to 11.8%.

Compared with `O=C(NN1C(=O)/C(=C/c2cccc(Br)c2)SC1=S)c1cccnc1`, `COc1ccc(/C=C2\SC(=O)N(CCC(=O)Nc3cccc(C)c3)C2=O)cc1OC` is higher in displacement: -9.8% for the first, 23.1% for the second.

Compared with `Cc1cccc(/C=N/NC(=O)C2COc3ccccc3O2)c1O` (stereo not given), `COc1ccccc1CC(=O)Nc1cccc(Cl)c1C` is higher in displacement: -3.6% for the first, 3.9% for the second.

First: O=C(CSc1nnc2c(n1)[nH]c1ccccc12)Nc1cccc2ccccc12
Second: OC(COc1ccccc1Cl)Cn1c2ccccc2c2ccccc21 (stereo not given)
The displacement of the first is lower: -1.2% for the first, 18.6% for the second.

First: CC1=CC(C)(C)N(C(=O)Nc2ccc(F)cc2)c2ccc(C)cc21
Second: NS(=O)(=O)c1ccc(CNC(=S)Nc2ccc(F)cc2)cc1
The displacement of the first is higher: 27.5% for the first, -7.2% for the second.

Going from `COc1c(Br)cc2c(cc(C)n2C)c1O` to `CCOC(=O)COc1ccc(/C=C2\C(=O)NC(=O)N(c3cc(C)cc(C)c3)C2=O)cc1Br`, the displacement falls from -6% to -14%.

Going from `N/C(=N/OC(=O)c1ccccc1F)c1nonc1N` to `COc1ccc(/C(N)=N/OC(=O)c2ccc(I)cc2)cc1`, the displacement rises from 1.5% to 8.8%.

Going from `Brc1ccc(-c2csc(NC3=NCCCCC3)n2)cc1` to `Cc1nnc(C)n1/N=C/c1ccc(Br)cc1`, the displacement rises from 8.9% to 12.9%.

First: COc1ccc(-c2nnc(-c3cccs3)o2)cc1OC
Second: COc1ccc(C(=O)NCc2cccnc2)c(OC)c1
The displacement of the first is lower: -6.7% for the first, 15.5% for the second.

Going from `O=C(CCNc1cccc(Cl)c1)c1cccs1` to `O=C(/C=C/Nc1ccc(Cl)c([N+](=O)[O-])c1)c1ccccc1`, the displacement falls from 3.6% to 1.9%.

First: COc1cc(C=NN2CCN(Cc3ccccc3Cl)CC2)ccc1OCc1ccccc1
Second: FC(F)(F)c1ccccc1CN1CCN(Cc2ccccc2Cl)CC1
The displacement of the first is lower: -4.7% for the first, 5.9% for the second.

First: CC1=C/C(=N\N=C2\NC(=O)C(CC(=O)Nc3ccc(Cl)cc3)S2)CC(C)(C)C1 (stereo not given)
Second: CCOC(=O)c1ccc(NC(=O)COc2ccc(Cl)cc2C)cc1
The displacement of the first is lower: -2.1% for the first, -2% for the second.

First: CCCC(=O)Nc1ccc(NC(=S)NC(=O)c2ccco2)cc1
Second: O=C(c1ccco1)N1CCN(Cc2ccco2)CC1
The displacement of the first is lower: -10.2% for the first, 11.2% for the second.

First: CCCc1c(C)c2cc(C)ccc2[nH]c1=O
Second: CCc1nc2c(C)ccc(C)c2c(N)c1C
The displacement of the first is higher: -15.6% for the first, -21.7% for the second.

Going from `CCOC(=O)/C(C#N)=C1/C=C(c2ccccc2)N=C(c2ccccc2)N1` to `Cc1ccccc1N(CC(=O)O)S(=O)(=O)c1ccccc1`, the displacement falls from 8.4% to 4.8%.

Compared with `Nc1cccc(-c2cc(C(=O)O)c3ccccc3n2)c1`, `CN(C(=O)c1ccc(Cl)cc1)c1ccccc1` is lower in displacement: 3.9% for the first, -6.4% for the second.

Going from `COC(=O)C1=C(C)NC2=C(C(=O)c3ccccc32)C1c1cc2c(cc1Cl)OCO2` (stereo not given) to `CCOC(=O)C1=C(C)NC(=S)NC1c1cc([N+](=O)[O-])ccc1O` (stereo not given), the displacement falls from 9.7% to -2.7%.

First: Cc1ccc(N2NC(=O)/C(=C/c3ccc(O)c(O)c3)C2=O)cc1C
Second: O=C1c2cccc3ccc(Cl)c(c23)C(=O)N1O
The displacement of the first is lower: 3.6% for the first, 9.8% for the second.

Going from `O=c1c([N+](=O)[O-])c(-n2ccnc2)c2ccccc2n1-c1ccccc1` to `COc1ccc(C2Nc3ccccc3C(=O)N2c2ccc(Cl)cc2)cc1Cn1nnc2ccccc21` (stereo not given), the displacement rises from -2.6% to 20.5%.

Compared with `CC1(C)CC(=O)c2c(oc3ccc(NS(=O)(=O)c4ccc5c6c(cccc46)C(=O)N5)cc23)C1`, `COc1ccc(C2CC(=O)C3=C(C2)Nc2ccccc2NC3c2c(F)cccc2Cl)cc1` (stereo not given) is lower in displacement: 27.1% for the first, -9% for the second.

First: C=C(C)COc1cc2oc(=O)c3c(c2cc1Cl)CCCC3
Second: CCSc1nc2c(cc1C#N)CCCC2
The displacement of the first is lower: 0% for the first, 0.9% for the second.

First: COc1ccc(NS(=O)(=O)c2ccc(C3CCCCC3)cc2)cc1
Second: Cc1ccc(S(=O)(=O)O/N=C2\CCCc3nonc32)cc1
The displacement of the first is lower: -7.5% for the first, 1.5% for the second.

Compared with `O=C(O)/C=C\C(=O)Nc1ccc(Cl)c(C(F)(F)F)c1`, `Cc1c(Br)c(C(F)(F)F)nn1CC(=O)N1CCc2ccccc2C1` is higher in displacement: 8.3% for the first, 14.1% for the second.

Going from `Cc1[nH]n(-c2nc(-c3cccc([N+](=O)[O-])c3)cs2)c(=O)c1N=Nc1ccc(Cl)c(Cl)c1` to `CC1CN(Cc2c(O)ccc3c(=O)c(Oc4ccccc4Br)c(C(F)(F)F)oc23)CC(C)O1` (stereo not given), the displacement rises from -15.7% to -3.2%.

Going from `COC(=O)C1=NN(C(C)=O)C(O)(c2ccccc2)C1` (stereo not given) to `Cc1cc(NCCCN(C)C)n2c(nc3ccccc32)c1C#N`, the displacement falls from 2.1% to -13.5%.

`Cc1ccc2nc(NC(=O)C3CCCO3)sc2c1` (stereo not given) was tested, and the displacement was -0.2%.
